# In all, about 310,000 compounds went through this assay and about 2,200 (0.71%) showed an effect of 50% or more. The effect is printed as a negative number. The list shows a part of the results.
# Target: human ether-à-go-go-related gene (hERG) potassium channel (human, UniProt Q12809)
# Test: primary screen, population patch clamp on CHO cells stably expressing hERG
# Sequence of human ether-à-go-go-related gene (hERG) potassium channel (Q12809 whole entry, looked up): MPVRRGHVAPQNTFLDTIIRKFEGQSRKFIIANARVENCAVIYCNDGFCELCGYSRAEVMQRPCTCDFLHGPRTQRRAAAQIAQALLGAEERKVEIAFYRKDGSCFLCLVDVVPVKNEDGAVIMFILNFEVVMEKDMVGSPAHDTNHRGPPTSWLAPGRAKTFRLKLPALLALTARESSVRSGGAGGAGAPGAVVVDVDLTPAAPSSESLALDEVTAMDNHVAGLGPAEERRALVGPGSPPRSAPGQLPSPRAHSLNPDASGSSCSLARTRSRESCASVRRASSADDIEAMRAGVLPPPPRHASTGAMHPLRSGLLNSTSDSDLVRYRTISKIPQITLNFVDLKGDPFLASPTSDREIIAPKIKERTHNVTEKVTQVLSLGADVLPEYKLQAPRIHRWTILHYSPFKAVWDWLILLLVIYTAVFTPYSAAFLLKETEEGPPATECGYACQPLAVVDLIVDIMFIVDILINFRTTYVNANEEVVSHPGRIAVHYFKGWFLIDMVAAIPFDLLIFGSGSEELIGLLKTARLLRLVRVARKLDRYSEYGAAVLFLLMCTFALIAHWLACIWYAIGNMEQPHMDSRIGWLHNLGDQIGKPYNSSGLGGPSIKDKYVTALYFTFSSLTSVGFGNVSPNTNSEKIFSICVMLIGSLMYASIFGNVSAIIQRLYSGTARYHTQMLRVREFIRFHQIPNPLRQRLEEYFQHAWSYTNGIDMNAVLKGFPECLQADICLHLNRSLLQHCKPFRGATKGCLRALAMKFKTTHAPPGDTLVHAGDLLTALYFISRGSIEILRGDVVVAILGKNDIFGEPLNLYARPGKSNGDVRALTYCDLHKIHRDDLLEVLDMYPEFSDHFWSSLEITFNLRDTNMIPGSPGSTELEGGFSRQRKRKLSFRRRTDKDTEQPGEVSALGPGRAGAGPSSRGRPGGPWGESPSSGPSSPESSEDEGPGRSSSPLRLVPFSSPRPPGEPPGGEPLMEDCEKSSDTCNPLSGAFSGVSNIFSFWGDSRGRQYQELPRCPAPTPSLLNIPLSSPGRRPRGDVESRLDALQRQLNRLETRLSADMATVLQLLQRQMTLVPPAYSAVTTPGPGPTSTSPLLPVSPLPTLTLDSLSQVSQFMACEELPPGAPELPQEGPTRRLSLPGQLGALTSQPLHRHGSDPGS
row,SMILES,"hERG current change (%, negative = inhibition) at 1uM"
1,CCn1c(COc2ccc(OC)cc2)nnc1SCc1nc2ccccc2c(=O)[nH]1,14.5%
2,Cn1cc(NC(=O)CCl)cn1,27.7%
3,O=C(NC(c1ccccc1)c1ccccc1)c1cccc(S(=O)(=O)NCc2ccccc2)c1,-0.118%
4,Cc1cccc2sc(NC(=O)CSc3cn[nH]n3)nc12,14.7%
5,O=C(NC(=S)Nc1ccc(-c2ccc(CO)o2)cc1)c1cccs1,10.6%
6,O=C(Oc1ccc(/C=N/NC(=O)c2ccccn2)cc1)c1cccc(Br)c1,8.17%
7,Cc1ccccc1OCC(O)Cn1c(Br)nc2c1c(=O)[nH]c(=O)n2C (stereo not shown),5.88%
8,Cc1ccccc1C(=O)c1cccn1CC(=O)NCc1ccc(F)cc1,9.03%
9,CCCn1c(-c2ccc(C(=O)OC)cc2)nc2c1c(=O)[nH]c(=O)n2Cc1ccccc1,7.52%
10,CC(=O)c1ccc(NC(=O)C2=CC(c3ccc4c(c3)OCO4)=NS(=O)(=O)N2C)cc1,9.25%
11,Cc1cc(O)c(C2(O)C(=O)Nc3cc(Br)ccc32)cc1C (stereo not shown),21.3%
12,CCOC(=O)c1sc(SC)c2c1CCCC2=O,11.2%
13,CC(C)(C)c1ccc(-c2nc(C#N)c(NCCCn3ccnc3)o2)cc1,5.95%
14,CCN1CCN(C(=O)CN(c2ccc(F)c(Cl)c2)S(C)(=O)=O)CC1,17.3%
15,CCOc1ccc(C(CC(=O)O)NC(=O)Cc2ccc(Cl)cc2)cc1 (stereo not shown),13%
16,O=C(Oc1cccnc1)c1ccc([N+](=O)[O-])cc1,7.57%
17,COc1cccc(N2CC(C(=O)Nc3nnc(SCC(=O)NCC4CCCO4)s3)CC2=O)c1 (stereo not shown),3.68%
18,Cc1cnc(C(=O)N2CCN(c3ccc(C(F)(F)F)cn3)CC2)cn1,-0.383%
19,COC(=O)[C@@]12CCCN1[C@H](c1ccc(-c3ccc(OC)cc3)c(OC)c1)[C@@H]1C(=O)N(C)C(=O)[C@@H]12.O=C(O)C(F)(F)F,10.5%
20,S=c1[nH]c(-c2ccccc2)cn1/N=C/c1cccnc1,11%

row,SMILES,"hERG current change (%, negative = inhibition) at 1uM"
1,Cc1ccc2cc(C#N)c(N3CCN(C)CC3)nc2c1,5.71%
2,Br.N=C(N)SCc1nc2ccccn2c1Br,-0.92%
3,CCCCCNCc1ccc(Br)cc1.Cl,-4.86%
4,CC(=O)c1c(C)nn(-c2ccccc2)c1C,15.5%
5,Cc1csc(N2CCCC2c2nc3cc(Cl)c(N4CCCCC4)cc3n2CCCO)n1 (stereo not shown),-4.89%
6,Cl.OC(CC#CCN1CCCCCC1)(c1ccccc1)C1CCCC1 (stereo not shown),4.13%
7,CC(C)(C)c1ccc(OCCC(=O)Nc2ccc(N3CCOCC3)cc2N2CCOCC2)cc1,5.25%
8,N#C/C(C(=S)Nc1ccccc1)=C1/NN=C(N2CCOCC2)N1c1ccccc1,12.5%
9,CC(=O)Nc1ccc(N2Cc3ccccc3C2)cc1,11.8%
10,Cc1cc(C(=O)NC(C)C2CC2)c(Cl)cc1Cl (stereo not shown),16.4%
11,CCc1cc(=O)[nH]c(SCC(=O)Nc2cc(C)on2)n1,7.23%
12,COc1cc(C)c(S(=O)(=O)n2c([N+](=O)[O-])cnc2C)cc1C,15.6%
13,COc1cc2c(cc1OC)C(C1C(=O)CCCC1=O)N(C(=O)CCl)CC2 (stereo not shown),9.33%
14,CCOc1ccc(CN(C)CC(=O)Nc2cccc3ccccc23)cc1OC.O=C(O)C(=O)O,-1.33%
15,O=C(c1ccc(-c2nnc(-c3ccccc3)o2)cc1)N1CCCCCC1,12.8%
16,CC(=O)N/C(=C/c1ccccc1)C(=O)N1CCCCC1,12.6%
17,COc1ccc(N(CC(=O)NC2CCCCC2)C(=O)CCCC(=O)Nc2ccccn2)c(OC)c1,1.88%
18,Cc1cccc(COc2ccccc2C(=O)NC2CCC(O)CC2)c1 (stereo not shown),10.7%
19,CCOc1ccc(CCNC(=O)c2ccc3nc(N4CCOCC4)sc3c2)cc1OCC,5.1%
20,Cc1oc(/N=C/c2cccc([N+](=O)[O-])c2)c(C#N)c1C,11.1%

row,SMILES,"hERG current change (%, negative = inhibition) at 1uM"
1,CCn1nc(C)c(NC(=O)/C=C/c2cnn(C)c2)c1C,-12.4%
2,C=CCn1c(CSc2nc3ccccc3s2)nnc1SCC(=O)OCC,-21.4%
3,COc1cccc(C(=O)C2CCCN(Cc3ccon3)C2)c1 (stereo not shown),14.5%
4,CN(/C=C/C(=O)C(F)(F)C(F)(F)F)Cc1ccccc1,1.5%
5,O=C(CCCn1c(SCC(=O)NCCc2ccccc2)nc2ccccc2c1=O)NCC1CCCO1 (stereo not shown),-15%
6,O=C(NCc1nnc(SCC(=O)N2CCOCC2)o1)c1ccccc1F,18.9%
7,Cc1cc(NC2CCCCC2)n2c(n1)nc1ccccc12,-18.4%
8,CC1CN(C2CCN(C(=O)c3cccc(Cl)c3)CC2)CC(C)O1 (stereo not shown),10.4%
9,CN(C)CCCNC(=S)N1CCn2c(nc3ccccc32)C1,9.39%
10,O=C(c1cccc([N+](=O)[O-])c1)N(c1ccccn1)c1ccccn1,9.69%
11,O=Cc1c(Cl)nc2ccccn12,14%
12,CNC(=S)N1N=C(c2cccs2)CC1c1ccc(OC)cc1 (stereo not shown),9.91%
13,COc1ccc(-n2c(C)cc(=O)c3c2CC(C)(C)CC3=O)cc1,15.7%
14,O=C(NCCN1CCOCC1)C1CCC(=O)N1Cc1ccc(F)cc1 (stereo not shown),-4.74%
15,COc1cc(/C=C/C(=O)OCC(=O)N2CCCc3ccccc32)ccc1OC(F)F,5.31%
16,Cc1c(N(C)C(=O)c2ccc3c(c2)OCO3)c(=O)n(-c2ccccc2)n1C,13.3%
17,O=C(CSc1ccccc1C(=O)NCc1ccccc1)NC1CCCCCCC1,-0.148%
18,C=CCN(Cc1ccc(OC)c(OC)c1)C(=O)c1cc2cc(F)ccc2[nH]1,7.69%

# — article PMC4336329 (PLoS ONE, 2015)
